Results taken from the supplement of paper PMC4967469.
pIC50: −log10 of the molar value. Lines with a small IC50 respond at low doses; a fit beyond the top or the lowest dose is shown as a bound at that dose. The AUC spans the tested range (256-fold, ending at the top dose) of the same fit; the more sensitive the line, the further below 1. Where the top dose is marked as inferred, it comes from the curve model; the source does not state it.

Compound: Cn1cc(C2=C(c3cn(C4CCN(Cc5ccccn5)CC4)c4ccccc34)C(=O)NC2=O)c2ccccc21 [LY317615]
Assay: Viability of human cancer cell lines after 72 h of drug (GDSC screen)
Conditions: top dose inferred
Description: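 Human cancer cell lines in 384-well plates, medium with 10% serum, drug for 72 h over a 256-fold dose range (nine 2-fold or five 4-fold steps up to the top dose). Adherent lines were fixed and stained with the nucleic acid dye Syto60, suspension lines read with resazurin; signal relative to control wells, capped at 0 and 100%. One two-parameter sigmoid per drug and line, fitted in a mixed model over all curves with the slope shared within a line.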

| Cell Line | AUC | pIC50 |
| --- | --- | --- |
| KCL-22 (chronic myeloid leukaemia, suspension, top dose 20 µM) | 0.872 | 4.85 |
| KE-37 (lymphoblastic leukaemia, suspension, top dose 20 µM) | 0.491 | 5.92 |
| KELLY (neuroblastoma, adherent, top dose 20 µM) | 0.989 | < 4.70 |
| KG-1 (acute myeloid leukaemia, suspension, top dose 20 µM) | 0.905 | < 4.70 |
| KGN (ovary, adherent, top dose 20 µM) | 0.942 | < 4.70 |
| KINGS-1 (glioma, adherent, top dose 20 µM) | 0.945 | < 4.70 |
| KLE (endometrium, adherent, top dose 20 µM) | 0.535 | 5.79 |
| KM12 (large intestine, adherent, top dose 20 µM) | 0.886 | < 4.70 |
| KM-H2 (Hodgkin lymphoma, suspension, top dose 20 µM) | 0.902 | 4.72 |
| KMH-2 (thyroid, adherent, top dose 20 µM) | 0.902 | < 4.70 |
| KMOE-2 (acute myeloid leukaemia, suspension, top dose 20 µM) | 0.661 | 5.48 |
| KMRC-1 (kidney, adherent, top dose 20 µM) | 0.982 | < 4.70 |
| KMRC-20 (kidney, adherent, top dose 20 µM) | 0.986 | < 4.70 |
| KMS-11 (myeloma, suspension, top dose 20 µM) | 0.76 | 5.21 |
| KMS-12-BM (myeloma, suspension, top dose 20 µM) | 0.854 | 4.93 |
| KNS-42 (glioma, adherent, top dose 20 µM) | 0.939 | < 4.70 |
| KNS-81-FD (glioma, adherent, top dose 20 µM) | 0.974 | < 4.70 |
| KON (head and neck, adherent, top dose 20 µM) | 0.97 | < 4.70 |
| KOPN-8 (B-cell leukaemia, suspension, top dose 20 µM) | 0.791 | 5.12 |
| KP-1N (pancreas, adherent, top dose 10.24 µM) | 0.826 | 5.18 |
| KP-2 (pancreas, adherent, top dose 20 µM) | 0.634 | 5.52 |
| KP-3 (pancreas, adherent, top dose 20 µM) | 0.561 | 5.72 |
| KP-4 (pancreas, adherent, top dose 20 µM) | 0.896 | < 4.70 |
| KP-N-YN (neuroblastoma, adherent, top dose 20 µM) | 0.963 | < 4.70 |
| KP-N-YS (neuroblastoma, adherent, top dose 20 µM) | 0.833 | 4.80 |
| KS-1 (glioma, adherent, top dose 20 µM) | 0.641 | 5.47 |
| KU812 (chronic myeloid leukaemia, suspension, top dose 20 µM) | 0.848 | 4.89 |

| Cell Line | AUC | pIC50 |
| --- | --- | --- |
| KU-19-19 (bladder, adherent, top dose 20 µM) | 0.962 | < 4.70 |
| KURAMOCHI (ovary, adherent, top dose 20 µM) | 0.674 | 5.38 |
| KY821 (leukaemia, suspension, top dose 20 µM) | 0.826 | 5.00 |
| KYAE-1 (oesophagus, suspension, top dose 20 µM) | 0.412 | 6.16 |
| KYM-1 (rhabdomyosarcoma, adherent, top dose 20 µM) | 0.991 | < 4.70 |
| KYSE-50 (oesophagus, adherent, top dose 20 µM) | 0.779 | 5.13 |
| KYSE-70 (oesophagus, adherent, top dose 20 µM) | 0.889 | < 4.70 |
| KYSE-140 (oesophagus, adherent, top dose 20 µM) | 0.723 | 5.23 |
| KYSE-150 (oesophagus, adherent, top dose 20 µM) | 0.945 | < 4.70 |
| KYSE-180 (oesophagus, adherent, top dose 20 µM) | 0.947 | < 4.70 |
| KYSE-220 (oesophagus, adherent, top dose 20 µM) | 0.982 | < 4.70 |
| KYSE-270 (oesophagus, adherent, top dose 20 µM) | 0.928 | < 4.70 |
| KYSE-410 (oesophagus, adherent, top dose 20 µM) | 0.857 | 4.75 |
| KYSE-450 (oesophagus, adherent, top dose 20 µM) | 0.664 | 5.46 |
| KYSE-510 (oesophagus, adherent, top dose 20 µM) | 0.927 | < 4.70 |
| KYSE-520 (oesophagus, adherent, top dose 20 µM) | 0.434 | 6.11 |
| L-363 (myeloma, suspension, top dose 20 µM) | 0.89 | 4.76 |
| L-428 (Hodgkin lymphoma, suspension, top dose 20 µM) | 0.934 | < 4.70 |
| L-540 (Hodgkin lymphoma, suspension, top dose 20 µM) | 0.932 | < 4.70 |
| L-1236 (Hodgkin lymphoma, suspension, top dose 20 µM) | 0.949 | < 4.70 |
| LAMA-84 (chronic myeloid leukaemia, suspension, top dose 20 µM) | 0.9 | < 4.70 |
| LAN-6 (neuroblastoma, adherent, top dose 20 µM) | 0.821 | 4.84 |
| LB373-MEL-D (melanoma, adherent, top dose 20 µM) | 0.989 | < 4.70 |
| LB647-SCLC (small cell lung carcinoma, semi-adherent, top dose 20 µM) | 0.85 | 4.74 |
| LB771-HNC (head and neck, adherent, top dose 20 µM) | 0.707 | 5.25 |
| LB831-BLC (bladder, adherent, top dose 20 µM) | 0.88 | < 4.70 |
| LB996-RCC (kidney, adherent, top dose 20 µM) | 0.982 | < 4.70 |

| Cell Line | AUC | pIC50 |
| --- | --- | --- |
| LB1047-RCC (kidney, adherent, top dose 20 µM) | 0.552 | 5.75 |
| LB2241-RCC (kidney, adherent, top dose 20 µM) | 0.982 | < 4.70 |
| LB2518-MEL (melanoma, adherent, top dose 20 µM) | 0.907 | < 4.70 |
| LC4-1 (lymphoblastic leukaemia, suspension, top dose 20 µM) | 0.823 | 4.87 |
| LC-1-sq (lung squamous cell carcinoma, adherent, top dose 20 µM) | 0.941 | < 4.70 |
| LC-2-ad (lung adenocarcinoma, adherent, top dose 20 µM) | 0.633 | 5.53 |
| LCLC-97TM1 (large cell lung carcinoma, adherent, top dose 20 µM) | 0.851 | 4.75 |
| LCLC-103H (large cell lung carcinoma, adherent, top dose 20 µM) | 0.958 | < 4.70 |
| LK-2 (lung squamous cell carcinoma, adherent, top dose 20 µM) | 0.945 | < 4.70 |
| LN-18 (glioma, adherent, top dose 20 µM) | 0.97 | < 4.70 |
| LN-229 (glioma, adherent, top dose 20 µM) | 0.953 | < 4.70 |
| LN-405 (glioma, adherent, top dose 20 µM) | 0.92 | < 4.70 |
| LNCaP-Clone-FGC (prostate, adherent, top dose 20 µM) | 0.589 | 5.65 |
| LNZTA3WT4 (glioma, adherent, top dose 20 µM) | 0.988 | < 4.70 |
| LOU-NH91 (lung squamous cell carcinoma, adherent, top dose 20 µM) | 0.924 | < 4.70 |
| LOUCY (T-cell lymphoblastic leukaemia, suspension, top dose 20 µM) | 0.467 | 5.99 |
| LOXIMVI (melanoma, semi-adherent, top dose 20 µM) | 0.965 | < 4.70 |
| LP-1 (myeloma, suspension, top dose 20 µM) | 0.862 | 4.90 |
| LS-123 (large intestine, adherent, top dose 20 µM) | 0.86 | < 4.70 |
| LS-180 (large intestine, adherent, top dose 20 µM) | 0.935 | < 4.70 |
| LS-411N (large intestine, adherent, top dose 20 µM) | 0.855 | < 4.70 |
| LS-513 (large intestine, adherent, top dose 20 µM) | 0.649 | 5.48 |
| LS-1034 (large intestine, adherent, top dose 20 µM) | 0.721 | 5.24 |
| LU-65 (large cell lung carcinoma, suspension, top dose 20 µM) | 0.817 | 4.86 |
| LU-99A (large cell lung carcinoma, adherent, top dose 20 µM) | 0.973 | < 4.70 |
| LU-134-A (small cell lung carcinoma, suspension, top dose 20 µM) | 0.884 | < 4.70 |
